Experimental data from the supplement of paper PMC4604168 (melanoma cell lines).
This is one part of the list. Repeats are few or missing, and single values can be far off.

Key:
Test in all cases: cell count relative to DMSO control; melanoma cells; higher = more viable cells
Conditions in all cases: library dose: low library concentration; 72 h
[1] = test system: MZ2-MEL
[2] = test system: MeWo
[3] = test system: RPMI7951
[4] = test system: RVH-421
[5] = test system: SkMel28
[6] = test system: SkMel2
[7] = test system: SkMel30
[8] = test system: SkMel5
[9] = test system: UACC257
[10] = test system: UACC62
[11] = test system: WM115
[12] = test system: WM1716
[13] = test system: WM1745
[14] = test system: WM3526
[15] = test system: WM3619
[16] = test system: WM451Lu
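Also: cell number obtained by counting DAPI-stained nuclei in high-throughput microscope images with image analysis software, screen run in 1,536-well plates.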

What does the source list for C=C(c1ccc(C(=O)O)cc1)c1cc2c(cc1C)C(C)(C)CCC2(C)C [Bexarotene] + O=C(Nc1cccc(Cl)c1)Nc1ncc(CCNc2ncnc3ccsc23)s1 [SNS314] (first compound 2 µM, partner dose 0.0008 µM)?
cell count [1]: 105%; cell count [2]: 88.3%; cell count [3]: 78%; cell count [4]: 107%; cell count [5]: 67%; cell count [6]: 95.8%; cell count [7]: 110%; cell count [8]: 86.3%; cell count [9]: 93.1%; cell count [10]: 83.8%; cell count [11]: 82.6%; cell count [12]: 95.5%; cell count [13]: 82%; cell count [14]: 62.8%; cell count [15]: 78.2%; cell count [16]: 96.8%

For CCCS(=O)(=O)Nc1ccc(F)c(C(=O)c2c[nH]c3ncc(Cl)cc23)c1F + c1cc(-c2cnn3cc(-c4ccc(OCCN5CCCCC5)cc4)cnc23)ccn1 [Dorsomorphin] (first compound 0.08 µM, partner dose 0.4 µM), which cell count [1] is on record?
The cell count was 82.3%.

And the cell count [2]?
The cell count was 107%.

And the cell count [3]?
Its cell count is 123%.

What about the cell count [4] of the same molecule?
The cell count was 92.5%.

And the cell count [5]?
Its cell count is 89.1%.

What about the cell count [6] of the same molecule?
Its cell count is 102%.

What about the cell count [7] of the same molecule?
Its cell count is 94.1%.

What about the cell count [8] of the same molecule?
The cell count was 108%.

What about the cell count [9] of the same molecule?
The cell count was 88.1%.

And the cell count [10]?
The cell count was 68.6%.

And the cell count [11]?
The cell count was 98.4%.

What about the cell count [12] of the same molecule?
The cell count was 112%.

And the cell count [13]?
The cell count was 106%.

And the cell count [14]?
Its cell count is 62.4%.

And the cell count [15]?
Its cell count is 76.5%.

What about the cell count [16] of the same molecule?
The cell count was 99.5%.

For CS(=O)(=O)c1ccc(C(=O)Nc2ccc(Cl)c(-c3ccccn3)c2)c(Cl)c1 [vismodegib] + O=C(O)c1ccc(-c2c[nH]c3ncc(-c4ccccc4)cc23)cc1C1CCCC1 [GSK650394] (first compound 1 µM, partner dose 0.16 µM), which cell count [1] is on record?
Its cell count is 103%.

What about the cell count [2] of the same molecule?
Its cell count is 86.3%.

What about the cell count [3] of the same molecule?
The cell count was 105%.

And the cell count [4]?
The cell count was 96.6%.

What about the cell count [5] of the same molecule?
The cell count was 102%.

And the cell count [6]?
The cell count was 97%.

And the cell count [7]?
Its cell count is 96.8%.

What about the cell count [8] of the same molecule?
The cell count was 97.5%.

And the cell count [9]?
Its cell count is 104%.

And the cell count [10]?
The cell count was 109%.

What about the cell count [11] of the same molecule?
Its cell count is 106%.

What about the cell count [12] of the same molecule?
The cell count was 107%.

What about the cell count [13] of the same molecule?
The cell count was 96.3%.

And the cell count [14]?
The cell count was 99%.

What about the cell count [15] of the same molecule?
The cell count was 117%.

And the cell count [16]?
Its cell count is 96.5%.

Which results are given for CN(c1ncccc1CNc1nc(Nc2ccc3c(c2)CC(=O)N3)ncc1C(F)(F)F)S(C)(=O)=O + O=C1NC(=O)/C(=C/c2ccc(-c3ccc(F)cc3O)o2)S1 [AS252424] (first compound 0.08 µM, partner dose 1 µM)?
cell count [1]: 96.6%; cell count [2]: 86%; cell count [3]: 62.4%; cell count [4]: 89.9%; cell count [5]: 80.2%; cell count [6]: 76.4%; cell count [7]: 80.3%; cell count [8]: 79.7%; cell count [9]: 72.5%; cell count [10]: 88.9%; cell count [11]: 77.8%; cell count [12]: 92.1%; cell count [13]: 64.3%; cell count [14]: 89.7%; cell count [15]: 82%; cell count [16]: 87%

Which cell count [1] does the source give for C=C(c1ccc(C(=O)O)cc1)c1cc2c(cc1C)C(C)(C)CCC2(C)C [Bexarotene] + COc1ccc(-c2ccc3c(N4CCOCC4)nc(N4C[C@@H](C)O[C@@H](C)C4)nc3n2)cc1CO [KU0063794] (first compound 2 µM, partner dose 0.02 µM) here?
The cell count was 95.4%.

What about the cell count [2] of the same molecule?
The cell count was 80.1%.

What about the cell count [3] of the same molecule?
The cell count was 73.1%.

And the cell count [4]?
The cell count was 83.4%.

What about the cell count [5] of the same molecule?
Its cell count is 73.7%.

And the cell count [6]?
The cell count was 86.1%.

What about the cell count [7] of the same molecule?
Its cell count is 109%.

What about the cell count [8] of the same molecule?
The cell count was 84.4%.

And the cell count [9]?
The cell count was 96.2%.

What about the cell count [10] of the same molecule?
The cell count was 92.4%.

And the cell count [11]?
The cell count was 95.8%.

And the cell count [12]?
The cell count was 86.5%.

What about the cell count [13] of the same molecule?
Its cell count is 82.9%.

What about the cell count [14] of the same molecule?
The cell count was 93.3%.

What about the cell count [15] of the same molecule?
The cell count was 91%.

What about the cell count [16] of the same molecule?
The cell count was 90.1%.

CCCS(=O)(=O)Nc1ccc(F)c(C(=O)c2c[nH]c3ncc(Cl)cc23)c1F + Cc1ccc(NC(=O)c2cccc(N(C)C)c2)cc1NC(=O)c1ccc(O)cc1 [ZM336372] (first compound 0.08 µM, partner dose 2 µM) was tested. Which cell count [1] did it give?
Its cell count is 82.8%.

What about the cell count [2] of the same molecule?
The cell count was 104%.

What about the cell count [3] of the same molecule?
The cell count was 89.8%.

What about the cell count [4] of the same molecule?
Its cell count is 71.7%.

What about the cell count [5] of the same molecule?
Its cell count is 80%.

And the cell count [6]?
Its cell count is 103%.

And the cell count [7]?
The cell count was 86.2%.

What about the cell count [8] of the same molecule?
Its cell count is 102%.

And the cell count [9]?
Its cell count is 58.6%.

What about the cell count [10] of the same molecule?
The cell count was 63.1%.

And the cell count [11]?
Its cell count is 95.6%.

What about the cell count [12] of the same molecule?
The cell count was 107%.

And the cell count [13]?
The cell count was 90.2%.

And the cell count [14]?
Its cell count is 70.1%.

What about the cell count [15] of the same molecule?
The cell count was 89.7%.

And the cell count [16]?
The cell count was 103%.
